Sequences with one replicate were seen in a single cluster, so their values are uncertain.

The series relates to ATP. Briefly: switch fluorescence ratio, 500 uM ATP over buffer (Cy3 cluster intensity, sum of 5 cycles each) (fold (ratio)); higher = stronger signal-on switching upon ATP binding; sequences stand for … in TCGTCGGCAGCGTCAGATGTGTATAAGAGACAGTTTTTTTTTTTTTTTTTTTTTTTTT…TC. The note with it: aptamer strand: ATP DNA aptamer (quencher-CACCTGGGGGAGTATTGCGGAGGAAGG + anchor), 100 nM annealed; ATP concentration: 500 uM; one replicate. In short, it runs like this:
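The fluorescence ratio divides summed target-cycle Cy3 intensity by summed buffer-cycle Cy3 intensity for each cluster and is averaged per switch-domain sequence. Cy3-labelled switching-strand clusters on a modified Illumina MiSeq flow-cell were annealed to 100 nM quencher-labelled ATP aptamer, then imaged in selection buffer and again after 15 min with 500 uM ATP at 22 °C. Five such cycles were run, with NaOH stripping and re-annealing between them, and clusters outside 100-1000 RFU were excluded.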
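Also: ATP exposure 15 min at 22 °C before imaging.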

Take AGAGAAATAA: the switch fluorescence ratio turned out to be 0.991. For CCTGTTGATG, the switch fluorescence ratio came out at 0.976. As to AATAAGACAG, the switch fluorescence ratio came out at 1. As to AATACGATGG, the switch fluorescence ratio is 1.07. As for ACTTCTCAAT, the switch fluorescence ratio turned out to be 1.31.

With GCCCAGACGT, the switch fluorescence ratio was found to be 1.03. Then CTGGACGCGT, with 1.01; and GGCTTACGTA, with 1.08. The same measure for GCCCCGCCCG: 1.1; for ACGAAGTAGG: 0.972. As for TTCATGTCTT, the switch fluorescence ratio was found to be 0.957. For the sequence GCCCTCGTGG, the switch fluorescence ratio worked out at 1.03. TCTAGGCAGG: the switch fluorescence ratio is 1.04. Take GTTTAGGTTG: the switch fluorescence ratio amounted to 1. With GGACCTTCGA, the switch fluorescence ratio turned out to be 1.13.

With TATACTCGCA, the switch fluorescence ratio was 1.16.

On to GTAGCCAAAA, for which the switch fluorescence ratio came out at 2.45. Consider TTTAGCGTCG, for which the switch fluorescence ratio was 0.983. With GGGTCGCCAA, the switch fluorescence ratio came out at 0.98. As to CGGATTGAGA, the switch fluorescence ratio is 1.

For the sequence TGACCGGTTT, the switch fluorescence ratio was found to be 1.04. For the sequence TTTCTAAGG, the switch fluorescence ratio came to 1.02. The same measure for ATAGTCGCTC: 0.937. As for ATCAAATTGA, the switch fluorescence ratio was found to be 0.992.

For the sequence GCCCGTGGTC, the switch fluorescence ratio stood at 1.04.

For CGTACTGCGG, the switch fluorescence ratio amounted to 1.08. Take TTCGCCCCGT: the switch fluorescence ratio is 0.965. The same measure for CGTATTGGTC: 1.01; for GCTATAGCTA: 1.01. As for AGTTGGGAGG, the switch fluorescence ratio worked out at 0.975.

Regarding GCAACAGTG, the switch fluorescence ratio is 1.1. For the sequence TTCCGCTGGT, the switch fluorescence ratio amounted to 1.22. Turning to TGATCGGTCG, the switch fluorescence ratio worked out at 0.98. With AGTTTTATAC, the switch fluorescence ratio stood at 1.08.

Take AGAAAGTCTT: the switch fluorescence ratio was 1.01. Then ACACTATGAG, with 0.998; and CGAGGTCACA, with 1.03. For GCAAGCCGTC, the switch fluorescence ratio amounted to 0.987. On to ATAGATGTTT, for which the switch fluorescence ratio amounted to 0.988. Take CGTATCATG: the switch fluorescence ratio stood at 1.05. Consider GCACGTTCAC, for which the switch fluorescence ratio worked out at 1.46. As for CCCTATTCG, the switch fluorescence ratio was 0.986. For GACGGATCAT, the switch fluorescence ratio stood at 0.988. Consider TGCGGGGGT, for which the switch fluorescence ratio turned out to be 0.966. Consider TTAGGGCGGC, for which the switch fluorescence ratio came to 1.01. Then CTCCTAAAGT, with 1.07.

Turning to ATGTTGGTGC, the switch fluorescence ratio was determined as 0.988. For the sequence GCGGGCGCCA, the switch fluorescence ratio was 1.01. For CGAACAGTGG, the switch fluorescence ratio came to 0.992.

On to CGCATTGCTG, for which the switch fluorescence ratio amounted to 1.05. GATGTGGTCG: the switch fluorescence ratio was determined as 0.984.

For CTGATCTTCT, the switch fluorescence ratio amounted to 1. GACTCATT: the switch fluorescence ratio was found to be 0.977. The same measure for GTTTCGAGGC: 1.11; for AATTCTTGGT: 0.983; for AGCCTTTCCG: 1.35. With AGCGCTTAGG, the switch fluorescence ratio worked out at 0.995.

In the case of GGTGGGAGTA, the switch fluorescence ratio stood at 1.01. Take CTTTATTGTG: the switch fluorescence ratio was 0.945. Turning to ATCTGGGCCT, the switch fluorescence ratio turned out to be 1.05. Consider ATGAGTGACA, for which the switch fluorescence ratio is 1.02. Regarding ATTACACGC, the switch fluorescence ratio was found to be 1.02. ACAATGTGCT: the switch fluorescence ratio was 0.979.

For the sequence GGGATGATAT, the switch fluorescence ratio was determined as 0.997. Turning to ATGGGCTTAA, the switch fluorescence ratio came out at 1.01.

TAATCCAGTA: the switch fluorescence ratio was 0.979. Regarding TAGCCTGGTG, the switch fluorescence ratio was determined as 1.57.

The values above are taken from the supplement of paper PMC10126150.
